# Data as given in patent EP0939084A1, “An estrogen binding proteinaceous substance, its possible role in estrogen action, and potential use” (Rao, Ramanath B., priority 1998, dated 1999).
# “Also recorded” adds a separate entry of the source. For at least one compound, name, drawing or mass did not settle the structure. Some entries share one result that the patent states for a list of compounds.
# Tests used:
# [1] = system: estrogen binding protein (EBP), 84 kD heterodimer, mouse fetal liver; experiment: Competition for / modulation of ^3H-estradiol-17β binding to EBP (charcoal assay); settings: for estradiol-17β binding to EBP in the presence or absence of sulfhydryl reagent: reagent at 0.001 to 5.0 mM; for effect on ^3H-estradiol-17β binding to EBP at high concentrations: high (higher) concentrations of the agent; for effect on ^3H-estradiol-17β binding to EBP at low concentrations: low (lower) concentrations of the agent; for inhibition of / influence on ^3H-estradiol-17β binding to EBP: competitor concentration not stated
# Description: In brief, the procedure is as follows. […] Simultaneously tubes in duplicate without any added protein sample were set up as control. At the end of the incubation the tubes were put in an ice bath for 15 minutes to cool to the ice bath temperature. 0.5 ml of charcoal solution (0.05% heat activated charcoal plus 0.05% bovine serum albumin in tris buffer) was added, mixed and incubated further for 10 minutes. The tubes were then centrifuged at 2500 rpm for 15 minutes at 4°C to pellet the charcoal. 0.5 ml from each tube was carefully withdrawn without disturbing the charcoal pellet at the bottom of the tube and the radioactivity was measured following mixing with the scintillation cocktail. The net protein bound radioactivity was calculated after deducting the background counts based on the tubes without any added protein.
# [2] = system: type II ER; settings: literature (40,41); cited from earlier work
# [3] = competitor at 200 times (200-fold) the concentration of the radiolabelled estrogen
# [4] = competitor at 200- to 400-fold concentrations of the radiolabelled estradiol-17β
structure (smiles),measurement,setting,value
"O[C@H](CS)[C@H](O)CS (racemic) [DTT, dithiotreitol]",estradiol-17β binding to EBP in the presence or absence of sulfhydryl reagent,[1],no significant difference
C=CC[C@@H]1/C=C(\C)C[C@H](C)C[C@H](OC)[C@H]2O[C@@](O)(C(=O)C(=O)N3CCCC[C@H]3C(=O)O[C@H](/C(C)=C/[C@@H]3CC[C@@H](O)[C@H](OC)C3)[C@H](C)[C@@H](O)CC1=O)[C@H](C)C[C@@H]2OC [FK506],effect on ^3H-estradiol-17β binding to EBP at high concentrations,[1],inhibited
same,effect on ^3H-estradiol-17β binding to EBP at low concentrations,[1],potentiated
CCC(=O)[C@@]1(C)CC[C@H]2[C@@H]3CCC4=CC(=O)CCC4=C3CC[C@@]21C [RU5020],inhibition of ^3H-estradiol-17β binding to EBP,[1]; [3],not inhibited
C[C@]12C[C@H](O)[C@H]3[C@@H](CCC4=CC(=O)CC[C@@]43C)[C@@H]1CC[C@@H]2C(=O)CO [corticosterone],inhibition of ^3H-estradiol-17β binding to EBP,[1]; [3],not inhibited
C[C@]12CCC(=O)C=C1CC[C@@H]1[C@@H]2[C@@H](O)C[C@@]2(C)[C@H]1CC[C@]2(O)C(=O)CO [cortisol],inhibition of ^3H-estradiol-17β binding to EBP,[1]; [3],not inhibited
C[C@]12CC[C@@H]3c4ccc(O)cc4CC[C@H]3[C@@H]1CCC2=O [estrone],relative binding activities of the competing estrogens,"[1]; calculated at the 50% reduction level, compared to non-labelled estradiol-17β competing potency",80%
same,inhibition of / influence on ^3H-estradiol-17β binding to EBP,[1],significantly inhibited
C#C[C@]1(O)CC[C@H]2[C@@H]3CCc4cc(O)ccc4[C@H]3CC[C@@]21C [ethinylestradiol],inhibition of / influence on ^3H-estradiol-17β binding to EBP,[1],no inhibitory action
O=C(CCCN1CCC(O)(c2ccc(Cl)cc2)CC1)c1ccc(F)cc1 [haloperidol],effect on ^3H-estradiol-17β binding to EBP at high concentrations,[1],inhibited
same,effect on ^3H-estradiol-17β binding to EBP at low concentrations,[1],potentiated; also recorded: significantly increased
COc1ccc(C2CC(=O)c3c(O)cc(O)cc3O2)cc1O (stereo not shown) [hespertin],competition with ^3H-estradiol-17β for binding sites on type II ER,[2],compete
same,inhibition of ^3H-estradiol-17β binding to EBP,[1]; [4],none of them at 200- to 400-fold concentrations of the radiolabelled estradiol-17β inhibited
O=c1cc(-c2ccc(O)c(O)c2)oc2cc(O)cc(O)c12 [luteolin],competition with ^3H-estradiol-17β for binding sites on type II ER,[2],compete
same,inhibition of ^3H-estradiol-17β binding to EBP,[1]; [4],none of them at 200- to 400-fold concentrations of the radiolabelled estradiol-17β inhibited
OC1(c2ccc(Cl)c(C(F)(F)F)c2)CCN(CCCC(c2ccc(F)cc2)c2ccc(F)cc2)CC1 [penfluridol],effect on ^3H-estradiol-17β binding to EBP at high concentrations,[1],inhibited
same,effect on ^3H-estradiol-17β binding to EBP at low concentrations,[1],significantly increased
CC(=O)[C@H]1CC[C@H]2[C@@H]3CCC4=CC(=O)CC[C@]4(C)[C@H]3CC[C@]12C [progesterone],inhibition of ^3H-estradiol-17β binding to EBP,[1]; [3],not inhibited
O=c1c(O)c(-c2ccc(O)c(O)c2)oc2cc(O)cc(O)c12 [querecetin],competition with ^3H-estradiol-17β for binding sites on type II ER,[2],compete
same,inhibition of ^3H-estradiol-17β binding to EBP,[1]; [4],none of them at 200- to 400-fold concentrations of the radiolabelled estradiol-17β inhibited
C[C@@H]1O[C@@H](OC[C@H]2O[C@@H](Oc3c(-c4ccc(O)c(O)c4)oc4cc(O)cc(O)c4c3=O)[C@H](O)[C@@H](O)[C@@H]2O)[C@H](O)[C@H](O)[C@H]1O [rutin],competition with ^3H-estradiol-17β for binding sites on type II ER,[2],compete
same,inhibition of ^3H-estradiol-17β binding to EBP,[1]; [4],none of them at 200- to 400-fold concentrations of the radiolabelled estradiol-17β inhibited
CN1CCN(CCCN2c3ccccc3Sc3ccc(C(F)(F)F)cc32)CC1 [trifluoperazine],effect on ^3H-estradiol-17β binding to EBP at high concentrations,[1],inhibited
same,effect on ^3H-estradiol-17β binding to EBP at low concentrations,[1],significantly increased
OCCS [β-mercaptoethanol],estradiol-17β binding to EBP in the presence or absence of sulfhydryl reagent,[1],no significant difference
